Variants at the background level are over-represented here.
B1: TPR 5TU (parent)
chain: GGAUCUUCUCGAUCUAACAAAAAAGACAAAUCUGCCACAAAGCUUGAGAGCAUCUUCGGAUGCAGAGGCGGCAGCCUUCGGUGGCGCGAUAGCGCCAACGUUCUCAACUAUGACACGCAAAACGCGUGCUCCGUUGAAUGGAGUUUAUCAUG

Variants of: B1
Assay: polymerase ribozyme fitness, log enrichment relative to wild type (log ratio); higher = more active; in vitro selection for triplet polymerase activity
Method in brief: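 After PCR construction and transcription, each subunit's mutant library from a heterodimeric triplet polymerase ribozyme was annealed with a biotinylated primer, the partner subunit and triplets. Incubation was frozen, at −7 °C, and extended constructs were gel-excised, bound to streptavidin beads and amplified by RT-PCR, in one selection round done in triplicate. Fitness is the logarithm of a genotype's enrichment divided by that of the wild type, from inverse-variance-weighted replicate averages of Illumina-sequenced inputs and outputs. The base of the logarithm is 2, and genotypes needed ≥10 input reads and ≥1 read per output.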

| Variant | polymerase ribozyme fitness (log ratio) |
| --- | --- |
| A20C C43U C85G | ≤ -4.2 |
| A20G A40C U55A U61A G71C | ≤ -4.2 |
| A20U C76U A91U G92C A115G U146C U151C | ≤ -4.2 |
| A20C A22U G34A A47C C96U A142U | ≤ -4.2 |
| A20C G25C C85U G117A G141C | ≤ -4.2 |
| A20G U31A A47C A122U G133U U145G | ≤ -4.2 |
| A20U A52G C96A G143A U148G | ≤ -4.2 |
| A20U C35A G83C | ≤ -4.2 |
| A20U A150G | -1.81 |
| A19U G136C | -3.86 |
| A20G C36U A119U A120C C129U A142G | -4.1 |
| A20C G46C A49C A66U G68U G84A G133A | ≤ -4.2 |
| A20G C51U G100A | ≤ -4.2 |
| A20C A29G C43G C69U A73G C96G A107U | ≤ -4.2 |
| A20U C51A A52C G83U A97G G143A | ≤ -4.2 |
| A20G U77A C85U C105U U135A A138G | ≤ -4.2 |
| A20U A49C | ≤ -4.2 |
| A20C A22G A29C C87A C96A | ≤ -4.2 |
| A20U A49G G65A G80C G84U G94A U146C | ≤ -4.2 |
| A20U C32U A37C C54U C75U C96A U102A A115C | ≤ -4.2 |
| A20U A47C G71U A138G U148C | ≤ -4.2 |

| Variant | polymerase ribozyme fitness (log ratio) |
| --- | --- |
| A21C A26C U56A G68C C114G C123A | ≤ -4.2 |
| A20U U45G G83U C103G C132U G143A | ≤ -4.2 |
| A20G A21C C54U G65A G71U C93A U127G | ≤ -4.2 |
| A20U A52C C93U U101G C131G | ≤ -4.2 |
| A20U C32G G59U C75U G86U G143C | ≤ -4.2 |
| A20G A29C U31C G59C C69U G94A U111C G117U U135A A138U G141C | ≤ -4.2 |
| A20C C87G G94C C99A A107U C108G | ≤ -4.2 |
| A20G C51U U90G G117A G124A G143A | ≤ -4.2 |
| A20G U55G C116U A121C | -0.705 |
| A20U C76A G83C G141U | ≤ -4.2 |
| A20U G84A C93G C96G | ≤ -4.2 |
| A20U A30U G46A C69U C93U | ≤ -4.2 |
| A20C C75A C96U C118G G141A | ≤ -4.2 |
| A20C C36U A47C | -1.91 |
| A20U C27G A52C C54U A122U U135C | ≤ -4.2 |
| A20C G83U A97G U151A | ≤ -4.2 |
| A20C C36U A73G C85A G140C A142G C149A | ≤ -4.2 |
| A20U A137C | -3.99 |
| A20G G46A U55G G70A C76U G84A C96U C103G C114U G152U | ≤ -4.2 |
| A20U G48C C57G G128A | ≤ -4.2 |
| A19U U44G U77C C93U G117A A138C U145G U151A | ≤ -4.2 |

| Variant | polymerase ribozyme fitness (log ratio) |
| --- | --- |
| A20U U53G C93A C99G G126A | ≤ -4.2 |
| A21C A26C A41C C75U U90G C99U G136A | ≤ -4.2 |
| A20C A21G U55A U56A A60U A64C G71A G92U U146G | ≤ -4.2 |
| A20U C35A G62C C85U G88A A97C U144C | ≤ -4.2 |
| A20C C79A U82C A107C | ≤ -4.2 |
| A20G A47G G50C A52U G94A A106C U139G | ≤ -4.2 |
| A20C A23U A39C C96U C125U | ≤ -4.2 |
| A20U U33G G81A C93U C125U A142C | ≤ -4.2 |
| A21C A26C C27U U44G A52G G58C U90A G92A G100U | ≤ -4.2 |
| A20U A23U A41C A47C C76G C79G C96A C108A C132U | ≤ -4.2 |
| A20C A28C A37U G42U G71A C85U C99G A106G C131G | ≤ -4.2 |
| A20U A23C A41G U55A C75G | ≤ -4.2 |
| A20U A23C A47G U77G G84C A97U C118U | ≤ -4.2 |
| A20C C51A C87U A89C A119U C149G | ≤ -4.2 |
| A20U C36U A41U G65U | ≤ -4.2 |
| A20U C54A U56A G84C G86C C96U G117C A122U U144A A150G | ≤ -4.2 |
| A20U A28U C35U G50U G126U | ≤ -4.2 |
| A20C G25C A28G C38G C43A G84U | ≤ -4.2 |
| A19U U56A A60G C75U C93A C118U U146A | -3.86 |
| A20G C35U A52C G59C G68C G81U U82A U109G C125A G141U A150C | ≤ -4.2 |
| A20G C93G C96U A98U U104G | ≤ -4.2 |

| Variant | polymerase ribozyme fitness (log ratio) |
| --- | --- |
| A20U C57G G94U C96U A115C C116G | ≤ -4.2 |
| A20U A60C U77G G88A G92A C95A U101A U146C | ≤ -4.2 |
| A20G C35G C57U G58U C87G U109G G140C U148A | ≤ -4.2 |
| A21C A28C C87G C103U C114U G141U | ≤ -4.2 |
| A20G G34U G67U C76G C79U C95U A106U | ≤ -4.2 |
| A20C A39U U53G U82G | ≤ -4.2 |
| A20C G94U G152C | -2.76 |
| A20U G88A A113G U127G G143C | ≤ -4.2 |
| A20G A40G C51A U55A A89C C118A | ≤ -4.2 |
| A20C C27G G58C C103G G143U | ≤ -4.2 |
| A21C A23G A39G G81C A97U U101G | ≤ -4.2 |
| A20U A64C G83C G141A | ≤ -4.2 |
| A20U U53A G65C C99U C105G | ≤ -4.2 |
| A21C A24G C36U U53A A66U C76A | ≤ -4.2 |
| A20C U55A G80U A91U A106C A121C | ≤ -4.2 |
| A20U A26U A29U G46A A49C A106U | ≤ -4.2 |
| A19U U45A U101G C131G | ≤ -4.2 |
| A20C G50C U55G C105U | ≤ -4.2 |
| A20C G50U G83U | -0.904 |
| A20G G48C C51G G86A C116U | ≤ -4.2 |
| A20U C57U C76G C85U U101G A147U | ≤ -4.2 |

Source: the RNAGym collection of RNA variant scans (doi:10.1073/pnas.2313332121)
